Assay results reported in patent publication US10647702B2, “Aryl-substituted imidazoles” (St. Jude Children's Research Hospital, priority 2010, dated 2020).
Where two headings read alike, the source gives them in different places. Blank lines part the entries; values can stand above or below the compound they belong to.

Assays:
[1] = target: T1, hMDMX (Homo sapiens, UniProt O15151); assay: Fluorescence polarization (FP) assay, MDMX-p53 inhibition; format: binding; settings: for IC50: GST-MDMX, Texas Red-labeled p53 peptide
T1 construct: mouse and human MDMX (amino acids 1-185); made in house; host or cells: Escherichia coli BL21 (DE3)
T1 sequence (O15151 1-185): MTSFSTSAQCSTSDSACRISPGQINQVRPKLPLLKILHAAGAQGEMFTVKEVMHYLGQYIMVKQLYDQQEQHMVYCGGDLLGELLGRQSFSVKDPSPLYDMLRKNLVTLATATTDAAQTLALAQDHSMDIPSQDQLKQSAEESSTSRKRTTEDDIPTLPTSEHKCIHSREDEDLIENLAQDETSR

[2] = Parallel Artificial Membrane Permeability Assay (PAMPA); format: in vitro ADME
Experimental: Parallel Artificial membrane Permeability Assay (PAMPA) was conducted by Biomek FX lab automation workstation (Beckman Coulter, Inc., Fullerton, Calif.) and PAMPA evolution 96 command software (pION Inc., Woburn, Mass.). The detailed method is described as following. 3 μL of 10 μM test compound stock in DMSO was mixed with 597 μL of citrate phosphate buffered saline (isotonic) to make diluted test compound. 150 μL of diluted test compound was transferred to a UV plate (pION Inc., Woburn, Mass.) and the UV spectrum was read as the reference plate. The membrane on pre-loaded PAMPA sandwich (pION Inc., Woburn, Mass.) was painted with 4 μL GIT lipid (pION Inc., Woburn, Mass.). The acceptor chamber was then filled with 200 μL ASB (acceptor solution buffer, pION Inc., Woburn, Mass.), and the donor chamber was filled with 180 μL diluted test compound. The PAMPA sandwich was assembled, placed on the Gut-box and stirred for 30 minutes. Aqueous Boundary Layer was set to 40 μm for stirring. The UV spectrum (250-500 nm) of the donor and the acceptor were read. The permeability coefficient was calculated using PAMPA evolution 96 command software (pION Inc., Woburn, Mass.) based on the AUC of the reference plate, the donor plate and the acceptor plate. All compounds were tested in triplicates.

[3] = Solubility assay (uSOL); format: physicochemical; settings: 18 hours; for uSOL pH 3: pH 3, room temperature; for uSOL pH 7.4: pH 7.4, room temperature
Experimental: Solubility assay was carried out on Biomek FX lab automation workstation (Beckman Coulter, Inc., Fullerton, Calif.) using μSOL Evolution software (pION Inc., Woburn, Mass.). The detailed method is described as following. 10 μL of 10 mM compound stock (in DMSO) was added to 190 μL 1-propanol to make a reference stock plate. 5 μL from this reference stock plate was mixed with 70 μI, 1-propanol and 75 μL citrate phosphate buffered saline (isotonic) to make the reference plate, and the UV spectrum (250 nm-500 nm) of the reference plate was read. 6 μL of 10 mM test compound stock was added to 594 μL buffer in a 96-well storage plate and mixed. The storage plate was sealed and incubated at room temperature for 18 hours. The suspension was then filtered through a 96-well filter plate (pION Inc., Woburn, Mass.). 75 μL filtrate was mixed with 75 μL 1-propanol to make the sample plate, and the UV spectrum of the sample plate was read. Calculation was carried out by μSOL Evolution software based on the AUC (area under curve) of UV spectrum of the sample plate and the reference plate. All compounds were tested in triplicates.

[4] = Simulated gastric fluid (SGF) stability; format: in vitro ADME; settings: SGF pH 1 with pepsin, 37° C., up to 48 hr
Experimental: Compound stocks were 10 mM in DMSO. The internal standard was 10 μM warfarin in methanol. 1.4 ml concentrate HCl (37%), 0.4 g NaCl and 0.64 g pepsin were added to 198 ml DI water to make SGF (pH 1). 1.9 ml SGF was added to the columns of 1, 4, 7 and 10 of a 2 ml 96-well deep well plate (pION Inc., MA, #110023); this was the master plate. 1.9 μl compound stock was added to each well with […] and mixed well. Using a multi-channel pipette, 600 μl from the columns of 1, 4, 7 and 10 were taken and added into the rest of the columns (fluids in column 1 added to columns 2 and 3, column 4 into 5 and 6, and so on). From the master plate, 65 μl were taken from each well and added into 8 storage plates (pION Inc., MA, #110323), each for a time point. The storage plates was then incubated at 37° C. and shaken at 60 rpm. Samples were taken at 0 min, 30 min, 1 hr, 2 hr, 4 hr, 8 hr, 24 hr and 48 hr. At each time point, 195 μl internal standard was added to quench the reaction. The plates were then centrifuged at 4000 rpm for 15 min and supernatant was analyzed by UPLC-MS. The compound was detected by SIR and quantitation was based on peak area ratio of test compound vs. the internal standard.

[5] = pH 3, permeability coefficient, read-out: PAMPA pH 3
[6] = pH 7.4, permeability coefficient, read-out: PAMPA pH 7.4

- IC50 value against MDMX in FP assay (in words) [1]: uM level
- IC50 [1]: 9 µM
SMILES: COc1ccc(C2=NC(c3cccc(Cl)c3)C(c3ccc(Cl)cc3)N2C(=O)N2CCNC(=O)C2)c(OC(C)C)c1 (stereo not drawn) [SJ000558295-1]

- IC50 [1]: 15.6 µM
SMILES: COc1ccc(C2=NC(c3ccc(Cl)cc3)C(c3cccc(Cl)c3)N2C(=O)N2CCNC(=O)C2)c(OC(C)C)c1 (stereo not drawn) [SJ000558296-1]

- R % pH 3 [2]: 76%
- Papp at 30 min, 0.05 µM [2, 5]: 222 ×10⁻⁶ cm/s
- R % pH 7.4 [2]: 78%
- Papp at 30 min, 0.05 µM [2, 6]: 694 ×10⁻⁶ cm/s
- uSOL pH 3 [3]: 72.7 uM
- uSOL pH 7.4 [3]: 37.8 uM
- SGF stability t(½) [4]: 30.13 h
SMILES: COc1ccc(C2=N[C@@H](c3cccc(Cl)c3)[C@@H](c3ccc(Cl)cc3)N2C(=O)N2CCNC(=O)C2)c(OC(C)C)c1 [SJ000558295-1]

- R % pH 3 [2]: 42%
- Papp at 30 min, 0.05 µM [2, 5]: 72.1 ×10⁻⁶ cm/s
- R % pH 7.4 [2]: 79%
- Papp at 30 min, 0.05 µM [2, 6]: 867 ×10⁻⁶ cm/s
- IC50 value against MDMX in FP assay (in words) [1]: uM level
- IC50 [1]: 9 µM
- uSOL pH 3 [3]: 66.7 uM
- uSOL pH 7.4 [3]: 57.4 uM
- SGF stability t(½) [4]: >48 h
SMILES: COc1ccc(C2=NC(c3cccc(C)c3)C(c3ccc(Cl)cc3)N2C(=O)N2CCNC(=O)C2)c(OC(C)C)c1 (stereo not drawn) [SJ000558304-1]

- IC50 [1]: 9.1 µM
SMILES: COc1ccc(C2=NC(c3ccccc3Cl)C(c3ccc(Cl)cc3)N2C(=O)N2CCNC(=O)C2)c(OC(C)C)c1 (stereo not drawn) [SJ000558302-1]

- IC50 [1]: > 40 µM
SMILES: COc1ccc(C2N=C(c3ccc(OC)cc3OC(C)C)N(C(=O)N3CCNC(=O)C3)C2c2ccc(Cl)cc2)cc1 (stereo not drawn) [SJ000558300-1]

- IC50 [1]: > 40 µM
SMILES: COc1ccc(C2=NC(c3ccc(Cl)cc3)C(c3ccccc3Cl)N2C(=O)N2CCNC(=O)C2)c(OC(C)C)c1 (stereo not drawn) [SJ000558301-1]

- IC50 [1]: 9.7 µM
SMILES: COc1ccc(C2=NC(c3ccc(Cl)cc3)C(c3cccc(F)c3)N2C(=O)N2CCNC(=O)C2)c(OC(C)C)c1 (stereo not drawn) [SJ000558306-1]

- IC50 [1]: 39.4 µM
SMILES: COc1cccc(C2N=C(c3ccc(OC)cc3OC(C)C)N(C(=O)N3CCNC(=O)C3)C2c2ccc(Cl)cc2)c1 (stereo not drawn) [SJ000558297-2]

- IC50 [1]: > 40 µM
SMILES: COc1ccc(C2=NC(c3ccc(C)cc3)C(c3ccc(Cl)cc3)N2C(=O)N2CCNC(=O)C2)c(OC(C)C)c1 (stereo not drawn) [SJ000560615-1]

- IC50 [1]: 2 µM
SMILES: COc1cccc(C2C(c3ccc(Cl)cc3)N=C(c3ccc(OC)cc3OC(C)C)N2C(=O)N2CCNC(=O)C2)c1 (stereo not drawn) [SJ000558298-1]

- IC50 [1]: 25 µM
SMILES: COc1ccc(C2=NC(c3ccc(Cl)cc3)C(c3ccc(C)cc3)N2C(=O)N2CCNC(=O)C2)c(OC(C)C)c1 (stereo not drawn) [SJ000560616-1]
